# In the supplement of paper PMC8728848:
# This is one part of the list.
# What was measured:
# Assay in all cases: glycan array binding signal (z-score within array); higher = stronger binding
# Conditions in all cases: glycan notation: IUPAC condensed, linker removed
# [1] = target: Neu5Ac(a2-3)Gal(b1-3)GalNAc
# Procedure, shortened: (§1)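 Columns mapping to the same glycan were averaged after glycan names were converted to IUPAC-condensed notation. The data come from 3228 arrays in the Consortium for Functional Glycomics database, limited to those with an available protein sequence. Binding is reported as a within-array Z-score averaged across arrays of one protein sequence and across linkers.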
# [2] = target: Neu5Ac(a2-3)Gal(b1-3)GalNAc(b1-3)Gal(a1-4)Gal(b1-4)Glc
# Procedure, shortened: as §1
# [3] = target: Neu5Ac(a2-3)Gal(b1-3)GalNAc(b1-4)[Neu5Ac(a2-3)]Gal(b1-4)Glc
# Procedure, shortened: as §1
# [4] = target: Neu5Ac(a2-3)Gal(b1-3)GalNAc(b1-4)[Neu5Ac(a2-8)Neu5Ac(a2-3)]Gal(b1-4)Glc
# Procedure, shortened: as §1
# [5] = target: Neu5Ac(a2-3)Gal(b1-3)GalNAc6S
# Procedure, shortened: as §1
# [6] = target: Neu5Ac(a2-3)Gal(b1-3)GlcNAc
# Procedure, shortened: as §1
# [7] = target: Neu5Ac(a2-3)Gal(b1-3)GlcNAc(b1-2)Man
# Procedure, shortened: as §1
# [8] = target: Neu5Ac(a2-3)Gal(b1-3)GlcNAc(b1-2)Man(a1-3)[GlcNAc(b1-4)][Neu5Ac(a2-3)Gal(b1-3)GlcNAc(b1-2)Man(a1-6)]Man(b1-4)GlcNAc(b1-4)GlcNAc
# Procedure, shortened: as §1
# [9] = target: Neu5Ac(a2-3)Gal(b1-3)GlcNAc(b1-2)Man(a1-3)[Neu5Ac(a2-3)Gal(b1-3)GlcNAc(b1-2)Man(a1-6)]Man(b1-4)GlcNAc(b1-4)GlcNAc
# Procedure, shortened: as §1
# [10] = target: Neu5Ac(a2-3)Gal(b1-3)GlcNAc(b1-3)Gal(b1-3)GlcNAc
# Procedure, shortened: as §1
# [11] = target: Neu5Ac(a2-3)Gal(b1-3)GlcNAc(b1-3)Gal(b1-4)GlcNAc
# Procedure, shortened: as §1
# [12] = target: Neu5Ac(a2-3)Gal(b1-3)GlcNAc(b1-3)GalNAc
# Procedure, shortened: as §1
# [13] = target: Neu5Ac(a2-3)Gal(b1-3)GlcNAc(b1-4)Gal(b1-4)Glc
# Procedure, shortened: as §1
# [14] = target: Neu5Ac(a2-3)Gal(b1-3)GlcNAc(b1-6)GalNAc
# Procedure, shortened: as §1
# [15] = target: Neu5Ac(a2-3)Gal(b1-3)GlcNAc6S
# Procedure, shortened: as §1
# [16] = target: Neu5Ac(a2-3)Gal(b1-3)[Fuc(a1-4)]GlcNAc
# Procedure, shortened: as §1
# [17] = target: Neu5Ac(a2-3)Gal(b1-3)[Fuc(a1-4)]GlcNAc(b1-3)Gal(b1-3)[Fuc(a1-4)]GlcNAc
# Procedure, shortened: as §1
# [18] = target: Neu5Ac(a2-3)Gal(b1-3)[Fuc(a1-4)]GlcNAc(b1-3)Gal(b1-4)[Fuc(a1-3)]GlcNAc
# Procedure, shortened: as §1
# [19] = target: Neu5Ac(a2-3)Gal(b1-3)[GlcNAc(b1-6)]GalNAc
# Procedure, shortened: as §1
# [20] = target: Neu5Ac(a2-3)Gal(b1-3)[Neu5Ac(a2-6)]GalNAc
# Procedure, shortened: as §1
# [21] = target: Neu5Ac(a2-3)Gal(b1-3)[Neu5Ac(a2-6)]GlcNAc(b1-3)[Fuc(a1-3)[Gal(b1-4)]GlcNAc(b1-6)]Gal(b1-4)Glc
# Procedure, shortened: as §1
# [22] = target: Neu5Ac(a2-3)Gal(b1-3)]Neu5Ac(a2-3)Gal(b1-4)]GlcNAc
# Procedure, shortened: as §1
# Neu5Ac(a2-3)Gal(b1-4)Glc = target: Neu5Ac(a2-3)Gal(b1-4)Glc
# Procedure, shortened: as §1
# [23] = target: Neu5Ac(a2-3)Gal(b1-4)GlcNAc
# Procedure, shortened: as §1
# [24] = target: Neu5Ac(a2-3)Gal(b1-4)GlcNAc(b1-2)Man
# Procedure, shortened: as §1
# [25] = target: Neu5Ac(a2-3)Gal(b1-4)GlcNAc(b1-2)Man(a1-3)[GlcNAc(b1-4)][Neu5Ac(a2-3)Gal(b1-4)GlcNAc(b1-2)Man(a1-6)]Man(b1-4)GlcNAc(b1-4)GlcNAc
# Procedure, shortened: as §1
# [26] = target: Neu5Ac(a2-3)Gal(b1-4)GlcNAc(b1-2)Man(a1-3)[Neu5Ac(a2-3)Gal(b1-4)GlcNAc(b1-2)Man(a1-6)]Man(b1-4)GlcNAc(b1-4)GlcNAc
# Procedure, shortened: as §1
# [27] = target: Neu5Ac(a2-3)Gal(b1-4)GlcNAc(b1-2)Man(a1-3)[Neu5Ac(a2-3)Gal(b1-4)GlcNAc(b1-2)Man(a1-6)]Man(b1-4)GlcNAc(b1-4)[Fuc(a1-6)]GlcNAc
# Procedure, shortened: as §1
# [28] = target: Neu5Ac(a2-3)Gal(b1-4)GlcNAc(b1-2)Man(a1-3)[Neu5Ac(a2-6)Gal(b1-4)GlcNAc(b1-2)Man(a1-6)]Man(b1-4)GlcNAc(b1-4)GlcNAc
# Procedure, shortened: as §1
# [29] = target: Neu5Ac(a2-3)Gal(b1-4)GlcNAc(b1-2)[Neu5Ac(a2-3)Gal(b1-4)GlcNAc(b1-4)]Man(a1-3)[GlcNAc(b1-4)][Neu5Ac(a2-3)Gal(b1-4)GlcNAc(b1-2)[Neu5Ac(a2-3)Gal(b1-4)GlcNAc(b1-6)]Man(a1-6)]Man(b1-4)GlcNAc(b1-4)GlcNAc
# Procedure, shortened: as §1
# [30] = target: Neu5Ac(a2-3)Gal(b1-4)GlcNAc(b1-2)[Neu5Ac(a2-3)Gal(b1-4)GlcNAc(b1-4)]Man(a1-3)[GlcNAc(b1-4)][Neu5Ac(a2-3)Gal(b1-4)GlcNAc(b1-4)Man(a1-6)]Man(b1-4)GlcNAc(b1-4)GlcNAc
# Procedure, shortened: as §1
# [31] = target: Neu5Ac(a2-3)Gal(b1-4)GlcNAc(b1-2)[Neu5Ac(a2-3)Gal(b1-4)GlcNAc(b1-6)]Man(a1-6)[Neu5Ac(a2-3)Gal(b1-4)GlcNAc(b1-2)Man(a1-3)]Man(b1-4)GlcNAc(b1-4)GlcNAc
# Procedure, shortened: as §1
# [32] = target: Neu5Ac(a2-3)Gal(b1-4)GlcNAc(b1-2)[Neu5Ac(a2-3)Gal(b1-4)GlcNAc(b1-6)]Man(a1-6)[Neu5Ac(a2-3)Gal(b1-4)GlcNAc(b1-2)Man(a1-3)][GlcNAc(b1-4)]Man(b1-4)GlcNAc(b1-4)GlcNAc
# Procedure, shortened: as §1
# [33] = target: Neu5Ac(a2-3)Gal(b1-4)GlcNAc(b1-3)Gal
# Procedure, shortened: as §1
# [34] = target: Neu5Ac(a2-3)Gal(b1-4)GlcNAc(b1-3)Gal(b1-3)GlcNAc
# Procedure, shortened: as §1
# [35] = target: Neu5Ac(a2-3)Gal(b1-4)GlcNAc(b1-3)Gal(b1-4)GlcNAc
# Procedure, shortened: as §1
# [36] = target: Neu5Ac(a2-3)Gal(b1-4)GlcNAc(b1-3)Gal(b1-4)GlcNAc(b1-2)Man(a1-3)[Neu5Ac(a2-3)Gal(b1-4)GlcNAc(b1-3)Gal(b1-4)GlcNAc(b1-2)Man(a1-6)]Man(b1-4)GlcNAc(b1-4)GlcNAc
# Procedure, shortened: as §1
binder,measurement,setting,value
GS13846A-bth-444-19-444 (Bacteroides thetaiotaomicron) (protein) SCENEFDVSDKADSLISVTVNTLNNQAAYNVGETAQAELWIQRGGLKDASGKVQFVVDPLLLDSLNQEDKTNYELLPENCYEMTNTEFTVDKNELCGYITYHPEKILALSAYNETKYVLPLRLISNDLAINPARNTSFLAFTILEPIVHISNAGVYNINPDLTSTMDIQIGVPFTNKWDILCNLTEDLSLIDEYNQINKVNFTLLPENAYTAPESVTLQEGVSQITASYQLKNNLVPGNYILPIKIGSITASQGGVPNNSLVIDEESNVLFCIVKEGNKINKSGWEVIECSSEHAGNEATYMIDDNESTYWHCKFKNEAGSSVPPFHFIIDMKKEITIAQIDLLNRGDGAANNIKWVEFYASNNNSEWDKIGAGDFNDEGTRATFRYYVKSTKARYLKLIIPEGYGNNCPPAAIRELTVYGLEGNN,glycan array binding signal (z-score),[1],-0.263
same,glycan array binding signal (z-score),[2],-0.249
same,glycan array binding signal (z-score),[3],0.179
same,glycan array binding signal (z-score),[4],-0.083
same,glycan array binding signal (z-score),[5],-0.313
same,glycan array binding signal (z-score),[6],-0.179
same,glycan array binding signal (z-score),[7],-0.327
same,glycan array binding signal (z-score),[8],-0.023
same,glycan array binding signal (z-score),[9],0.024
same,glycan array binding signal (z-score),[10],-0.139
same,glycan array binding signal (z-score),[11],-0.271
same,glycan array binding signal (z-score),[12],-0.452
same,glycan array binding signal (z-score),[13],-0.503
same,glycan array binding signal (z-score),[14],-0.002
same,glycan array binding signal (z-score),[15],-0.135
same,glycan array binding signal (z-score),[16],-0.154
same,glycan array binding signal (z-score),[17],0.023
same,glycan array binding signal (z-score),[18],-0.006
same,glycan array binding signal (z-score),[19],-0.43
same,glycan array binding signal (z-score),[20],-0.37
same,glycan array binding signal (z-score),[21],0.12
same,glycan array binding signal (z-score),[22],-0.307
same,glycan array binding signal (z-score),Neu5Ac(a2-3)Gal(b1-4)Glc,-0.224
same,glycan array binding signal (z-score),[23],-0.177
same,glycan array binding signal (z-score),[24],-0.218
same,glycan array binding signal (z-score),[25],-0.338
same,glycan array binding signal (z-score),[26],-0.122
same,glycan array binding signal (z-score),[27],-0.407
same,glycan array binding signal (z-score),[28],-0.236
same,glycan array binding signal (z-score),[29],-0.35
same,glycan array binding signal (z-score),[30],-0.332
same,glycan array binding signal (z-score),[31],-0.343
same,glycan array binding signal (z-score),[32],-0.314
same,glycan array binding signal (z-score),[33],-0.115
same,glycan array binding signal (z-score),[34],-0.365
same,glycan array binding signal (z-score),[35],-0.273
same,glycan array binding signal (z-score),[36],0.171
